Measured values as given in the RNAGym collection of RNA variant scans (doi:10.7554/elife.90254).
Read counts are not given, so values of variants with three or more changes are uncertain.

B1: OR4K15 (parent)
chain: GUUAACGGUCAUAGGCCAUGGAAACUAGGAGCACCAUUUCGCUGCCAGUGAAGAAAUGAACAAAGAAAAUCUGGGCCAGGCAGGCAUCAAAAGAAAUAGUCUUGCGCUCAACCAGAAAGUCUGUAAUCAUUUUAAGGGUA

Variants of: B1
Assay: self-cleavage, relative activity (ratio to wild type); higher = more cleavage; in vitro, sequencing; the parent is a self-cleaving ribozyme

Variant	self-cleavage
GUUAACGGUCAUAGGCCAUGGAAACUAGGAGCACCAUUUCGCUGCCAGUGAAGAGAUGAACAAAGAAAACCUGGGCCAGGCAGGCAUCAAAAGAAAUAGUCUUGCGCUCAACCAGAAAGUCUGUAAUCACUUUAAGGGUA [A55G U70C U130C]	0.46
GUUAACGGUCAUAGGCCAUGGAAACUAGGAGCACCAUUUCGCUGCCAGUGAAGAGAUGAACAAAGAAAAUCUGGACCAGGCAGGCAUCAAAAGAAAUAGUCUUGCGCUCAACCAGUAAGUCUGUAAUCAUUUUAAGGGUA [A55G G75A A116U]	0.03
GUUAACGGUCAUAGGCCAUGGAAACUAGGAGCACCAUUUCGCUGCCAGUGAAGAGAUGAACAAAGAAAAUCUGGGCCAGGCAGGCAUCAAAAGAAAUAGUCUAGCGCUCAACCAGAAAGUCUGUAAUCAUUUUAAGGGUU [A55G U103A A140U]	0.62
GUUAACGGUCAUAGGCCAUGGAAACUAGGAGCACCAUUUCGCUGCCAGUGAAGAGAUGAACAAAGAAAAUCUGGGCCAGGCAGGCAUCAAGAGAAAUAGUCUUGCGCUCAACCAGAAAGUCUGUAAACAUUUUAAGGGUA [A55G A91G U127A]	1.76
GUUAACGGUCAUAGGCCAUGGAAACUAGGAGCACCAUUUCGCUGCCAGUGAAGAGAUGAACAAAUAAAAUCUGGGCCAGGCAGGCAUCAAAAGAAAUAGUCUUGCGCUCGACCAGAAAGUCUGUAAUCAUUUUAAGGGUA [A55G G65U A110G]	0.09
GUUAACGGUCAUAGGCCAUGGAAACUAGGAGCACCAUUUCGCUGCCAGUGAAGAGAUGAACAAAGAAAAUCUGGGCCAGGCAGGCAUCAAAAGAAAUAGUCUUGCGCCUAACCAGAAAGUCUGUAAUCAUUUUAAGGGUA [A55G U108C C109U]	0.05
GUUAACGGUCAUAGGCCAUGGAAACUAGGAGCACCAUUUCGCUGCCAGUGAAGAGAUGAACAAAGAAAAUCAGGGCCAGGCAGGCAUCGAAAGAAAUAGUCUUGCGCUCAACCAGAAAGUCUGUAAUCAUUUUAAGGGUA [A55G U72A A89G]	0.32
GUUAACGGUCAUAGGCCAUGGAAACUAGGAGCACCAUUUCGCUGCCAGUGAAGAUAUGGACAAAGAAAAUCUGGGCCAGGCAGGCAUCAAAAGAAAUAGUCUUGCGCUCAACCAGAGAGUCUGUAAUCUUUUUAAGGGUA [A55U A59G A117G A129U]	0
GUUAACGGUCAUAGGCCAUGGAAACUAGGAGCACCAUUUCGCUGCCAGUGAAGAGAUGAACAAAGAAAAUCUGGGCCAGGCAGGCAUCAAAAGAAAUAGUCUUGCGCUCAGCCAGAAAGUCUGUAAUCAUCUUAAGGGUA [A55G A111G U131C]	0.02
GUUAACGGUCAUAGGCCAUGGAAACUAGGAGCACCAUUUCGCUGCCAGUGAAGAGAUGAACAAAGAAAAUCUGGGCCAGGCAGGCAACAAAAGAAAUGGUCUUGCGCUCAACCAGAAAGUCUGUAGCCAUUAUAAGGGUA [A55G U87A A98G A126G U127C U132A]	0.09
GUUAACGGUCAUAGGCCAUGGAAACUAGGAGCACCAUUUCGCUGCCAGUGAAGAGAUGAACAAAGAAAAUCUGGGCCAGGCAGGCACCAAAAGAGAUAGUCUUGCGCUCAACCAGAAAGUCUGUAAUCAUUUUAAGGGUA [A55G U87C A95G]	0.98
GUUAACGGUCAUAGGCCAUGGAAACUAGGAGCACCAUUUCGCUGCCAGUGAAGAGACGAACAAAGGAAAUCUGGGCCAGGCAGGCAUCAAAAGAAAUAGUCUUGCGCUCAACCAGAAAGUCUGUAAUCAUUUUAAGGGUA [A55G U57C A66G]	0.68
GUUAACGGUCAUAGGCCAUGGAAACUAGGAGCACCAUUUCGCUGCCAGUGAAGAGAUGAACAAAGAAAAUCUGGGCCAGGCAGGCAUCAAAAGAAAUAGUCUUGCGCUCAACCAGAAAGUCUGUAAUCAUUUCAAGGGCA [A55G U133C U139C]	1.83
GUUAACGGUCAUAGGCCAUGGAAACUAGGAGCACCAUUUCGCUGCCAGUGAAGAGAUGAACAAAGAAAAUCUGGGCCAGGUAGGCAUCAAAAGAAAUAGUCUCGCGCUCAACCAGAAAGUCUGUAAUCAUUUUAAGGGUA [A55G C81U U103C]	0.03
GUUAACGGUCAUAGGCCAUGGAAACUAGGAGCACCAUUUCGCUGCCAGUGAAGAGAUGAACAAAGAAAAUCUGGGCCAGGCAGGCAUCAAAAGAAACAGUCUUGCGCUCAACCAGAAAGCCUGUAAUCAUCUUAAGGGUA [A55G U97C U120C U131C]	0.79
GUUAACGGUCAUAGGCCAUGGAAACUAGGAGCACCAUUUCGCUGCCAGUGAAGAGAUGAACAAAGAAAAUCUGGGCCAGGCAGGCAUCAAAAGAGAUAGUCUUGCGCUCGACCAGAAAGUCUGUAAUCAUUUUAAGGGUA [A55G A95G A110G]	0.18
GUUAACGGUCAUAGGCCAUGGAAACUAGGAGCACCAUUUCGCUGCCAGUGAAGAUAUGGACAAAGAAAAUCUGGGCCAGGCAGGCAUCAAAAGAAGUAGUCUUGCGCUCAACCAGAAAGCCUGUAAUCAUUUUAAGGGUA [A55U A59G A96G U120C]	0.71
GUUAACGGUCAUAGGCCAUGGAAACUAGGAGCACCAUUUCGCUGCCAGUGAAGAGAUGAACAAAGAAAAUCUGGGCCAGGCAGGCAUCAAAAGGUAUAGUCUUGCGCUCAACCAGAAAGUCUGUAAUCAUUUUAAGGGUA [A55G A94G A95U]	1.92
GUUAACGGUCAUAGGCCAUGGAAACUAGGAGCACCAUUUCGCUGCCAGUGAAGAGAUGAACAAAGAAAAUCUGGGCCAGGCAGGCAUCAAAAGAGAUAGUCCUGCGCUCAACCAGAAAGUCUGUAAUCAUUUUAAGGGUA [A55G A95G U102C]	2.07
GUUAACGGUCAUAGGCCAUGGAAACUAGGAGCACCAUUUCGCUGCCAGUGAAGAGAUGAACAAAGAAAAUCUGGGCCAGGCAGGCAUCAAAGGAAAUAGUCUUGCGCUCGACCAGAAAGUCUGUAAUCAUUUUAAGGGUA [A55G A92G A110G]	0.1
GUUAACGGUCAUAGGCCAUGGAAACUAGGAGCACCAUUUCGCUGCCAGUGAAGAGAUGAACAAAGAAAAUCUGGGCCAGGCAGGCAUCAAAAGAAAUAGUCCUGCGCUCAGCUAGAAAGUCUGUAAUCAUUUUAAGGGUA [A55G U102C A111G C113U]	0.01

Variant	self-cleavage
GUUAACGGUCAUAGGCCAUGGAAACUAGGAGCACCAUUUCGCUGCCAGUGAAGAGAUGAACAAAGAAAAUCUGGGCUAGGCAGGCAUCAAAAGAAAUAGUCUUGCGCUCAACCAGAAAGUCUGUAAUCACUUUAAGGGUA [A55G C77U U130C]	1.23
GUUAACGGUCAUAGGCCAUGGAAACUAGGAGCACCAUUUCGCUGCCAGUGAAGAGAUGAACAAAGAAAAUCUGGGCCAGGCAGGCAUCAAAAGAAAUAGUCUUGCGCUCAACCAGAAAGUCUGUAAUCAUUUUAGGGGCA [A55G A135G U139C]	1.36
GUUAACGGUCAUAGGCCAUGGAAACUAGGAGCACCAUUUCGCUGCCAGUGAAGAGAUGAACAAAGAAAACCUGGGCCAGGCAGGCAUCAAAAGAAAUGGUCUCGCGCUCAACCUGAAAGUCUGUAAUCAUUUUAAGGGUA [A55G U70C A98G U103C A114U]	0
GUUAACGGUCAUAGGCCAUGGAAACUAGGAGCACCAUUUCGCUGCCAGUGAAGAGAUGAACAAAGAAAAUCUGGGCCAGGCAGGCAUCAAAAGAAAUAGUCUUGCGCUCAACCAGAAAGCCUGUAAUCAUUUUAAAGGUA [A55G U120C G136A]	2.2
GUUAACGGUCAUAGGCCAUGGAAACUAGGAGCACCAUUUCGCUGCCAGUGAAGAGAUGAACAAAGAAAAUCUGGGCCAGGCAGGCACCAAAAGAAAUAGUCUUGCGCUCAACCAGAAGGUCUGUAAUCACUAUAAGGGUA [A55G U87C A118G U130C U132A]	0.44
GUUAACGGUCAUAGGCCAUGGAAACUAGGAGCACCAUUUCGCUGCCAGUGAAGAUAUGUACAAAGAAAAUCUGGGCCAGGCAGGCAUCAAAAGAAAUAGUCCUGCGCUCAACCAGAAAGUCUGUAAUCAUUUUAAGGGUA [A55U A59U U102C]	1.84
GUUAACGGUCAUAGGCCAUGGAAACUAGGAGCACCAUUUCGCUGCCAGUGAAGAGAUGAACAAAGAAAAUCUGCGCCAGGCAGGCAUCAAGAGAAAUAGUCUUGCGCUCAACCAGAAGGUCUGUAACCAUUUUAAGGGUA [A55G G74C A91G A118G U127C]	0.02
GUUAACGGUCAUAGGCCAUGGAAACUAGGAGCACCAUUUCGCUGCCAGUGAAGAGAUGAACAAAGAAAAUCUGGGCCAGGCAGGCAUCAAAAGAAAUAGUCUUGCGCCCAACCUGAAAGUCUGUAAUCAUUUUAAGGGUA [A55G U108C A114U]	0
GUUAACGGUCAUAGGCCAUGGAAACUAGGAGCACCAUUUCGCUGCCAGUGAAGAGAUGAACAAAGAAAAUCUGGGCCAGGCAGGCAUCAAAAGAAAUAGUCUUGCGCUCGACCAGAAAGUCUGUAAUCAUUCUAAGGGUA [A55G A110G U132C]	0.1
GUUAACGGUCAUAGGCCAUGGAAACUAGGAGCACCAUUUCGCUGCCAGUGAAGAUGUGAACAAAGAAGAUCUGGGCCAGGCAGGCAUCAAGAGAAACAGUCUUGCGCUCAACCAGGAAGUCUGUAAUCAUCUUAAGGGUA [A55U A56G A68G A91G U97C A116G U131C]	0.43
GUUAACGGUCAUAGGCCAUGGAAACUAGGAGCACCAUUUCGCUGCCAGUGAAGAGAUGAACAAAGAAAAUCUGGGCCAGGCAGGCACCAAAAGAAAUAGUCUUGCGCUCAACCAGAAAGUCUGUAAUCAUUUUAAUGGUA [A55G U87C G136U]	1.72
GUUAACGGUCAUAGGCCAUGGAAACUAGGAGCACCAUUUCGCUGCCAGUGAAGAGAUGAACAAAGAAAAUCUGGGCCAGGCAGGCACCAAAAGUAAUAGUCUUGCGCUCAACCAGAAAGUCUGUAAUCAUUUUAAGGGUA [A55G U87C A94U]	2.6
GUUAACGGUCAUAGGCCAUGGAAACUAGGAGCACCAUUUCGCUGCCAGUGAAGAGAUGAACAAAGAAAAUCUGGGCCAGGCAGGCACCAAAAGAAAUAGUCUUGCGCUCAACCAGAAGGUCUGUAGUCAUUUUAAGGGUA [A55G U87C A118G A126G]	0.81
GUUAACGGUCAUAGGCCAUGGAAACUAGGAGCACCAUUUCGCUGCCAGUGAAGAGAUGAACAAAGAAAAUCUGGGCCAGGCAGGCAUCAAAAGAAAUAGUCUUGCGCUCAACCAGAAGGUCUGUAAUCAUUUUAUGGGUA [A55G A118G A135U]	0.44
GUUAACGGUCAUAGGCCAUGGAAACUAGGAGCACCAUUUCGCUGCCAGUGAAGAGAUGAACAAAGAAAAUCCGGGCCAGGCAGGCGUCAAAAGAGAUAGUCUUGCGCUCAACCAGAAAGUCUGUAAUCAUUUUAUGGGUA [A55G U72C A86G A95G A135U]	0.09
GUUAACGGUCAUAGGCCAUGGAAACUAGGAGCACCAUUUCGCUGCCAGUGAAGAGAUGAACAAAGAAAAUCUGGGCCAGGCAGGCAUCAGAAGAAACAGUCUUGCGCUUAACCAGAAAGUCUGUAAUCAUUUUAAGGGUA [A55G A90G U97C C109U]	0.09
GUUAACGGUCAUAGGCCAUGGAAACUAGGAGCACCAUUUCGCUGCCAGUGAAGAGAUGAACAAAGAAAAUCAGGGCCAGGCAGGCAUCAAAUGAAAUAGUCUUGCGCUCAACCAGAAAGUCUGUAAUCAUUUUAAGGGUA [A55G U72A A92U]	0.21
GUUAACGGUCAUAGGCCAUGGAAACUAGGAGCACCAUUUCGCUGCCAGUGAAGAGAUGAACAAAGAAAAUCUGGGCCAGGCAGGCAUCAAAAGAAAUAGUCUUGCGCUCAACCAGAAAGUCUGUAAUCAUCCUAGGGGUA [A55G U131C U132C A135G]	1.08
GUUAACGGUCAUAGGCCAUGGAAACUAGGAGCACCAUUUCGCUGCCAGUGAAGAUAUGCACAAAGAAAAUCUGGGCCAGGCAGGCAUCAAAAGAAAUAGCCUUGCGCUCAACCAGAAAGUCUGUAAUCAUUUUAAGGGUA [A55U A59C U100C]	2.37
GUUAACGGUCAUAGGCCAUGGAAACUAGGAGCACCAUUUCGCUGCCAGUGAAGAGAUGAACAAAGAAAAUCUGGGCCAGGCAGGCAUCAAAAGAAAUAGUCUCGCGCUCAACCAGAAAGUCUGUAGUCAUUUUAAGGGUA [A55G U103C A126G]	0.3
